One experiment concerns HSkMC. In words: cytotoxicity call (relative viability < 0.9). To be noted: 10 µM.
Another experiment has as its system S. aureus RN4220. In words: growth inhibition call (relative growth <= 0.2). To be noted: 50 µM.

Some of the results follow.

Turning to `Cc1cc2ccccc2n1CCN`, in the experiment on HSkMC, the cytotoxicity call was “inactive”. In addition, the growth inhibition call with S. aureus RN4220 was “inactive”.
As to `C=CC1CN2CCC1CC2C(OC(=O)OCC)c1ccnc2ccc(OC)cc12` (centres undefined), in the experiment on HSkMC, the cytotoxicity call is “inactive”. In addition, in the experiment with S. aureus RN4220, the growth inhibition call was “inactive”.
In the case of `C[C@H]1C[C@@H]2CNC[C@@H]2O1`, the cytotoxicity call in the experiment on HSkMC is “inactive”. In the experiment on S. aureus RN4220, the growth inhibition call is “inactive”.
As to `CN1C[C@@H](C(=O)O)CN2CCN(C(=O)c3ccncc3F)C[C@@H]2C1`, the cytotoxicity call in the experiment with HSkMC is “inactive”. The growth inhibition call in the experiment on S. aureus RN4220 was “inactive”.
On to `C[C@@H]1CN([C@@H](C)CO)C(=O)CCCn2cc(nn2)CO[C@H]1CN(C)C(=O)Oc1cccc2ccccc12`, for which, in the experiment on HSkMC, the cytotoxicity call was “inactive”. Also, the growth inhibition call with S. aureus RN4220 is “inactive”.
As for `CC(C)NC(=O)C1=NO[C@]2(CCNC2)C1`, the cytotoxicity call with HSkMC is “inactive”. The growth inhibition call in the experiment on S. aureus RN4220 was “inactive”.
Take `COC(=O)CC1=C(C(=O)OC)[C@]2(C(=O)Nc3ccccc32)C(C(=O)OC)C(=N)O1` (some centres undefined): the cytotoxicity call with HSkMC is “inactive”. For the same compound, in the experiment on S. aureus RN4220, the growth inhibition call was “inactive”.
Consider `O=C(NC(=O)c1c(F)cccc1F)Nc1cc(Cl)c(OC(F)(F)[C@@H](F)C(F)(F)F)cc1Cl`, for which the cytotoxicity call in the experiment with HSkMC is “active”. For the same compound, in the experiment on S. aureus RN4220, the growth inhibition call was “inactive”.
In the same order, the values of `Cc1nccc2c1[nH]c1ccccc12` are “inactive” and “inactive”.
In the same order, the values of `O=C1CCO1` are “inactive” and “inactive”.
The like results for `CC(C)(C)NCC(O)c1cc(Cl)c(N)c(Cl)c1.Cl` (centres undefined) were, in that order, “inactive” and “inactive”.
Regarding `C=CCOC(=O)[C@@H]1[C@@H](C(=O)OC)N(C)[C@@H](c2ccccc2)[C@]12C(=O)Nc1ccc(I)cc12`, in the experiment on HSkMC, the cytotoxicity call is “inactive”. Also, the growth inhibition call in the experiment with S. aureus RN4220 was “inactive”.
Consider `CC[C@@H](C)NC=C1C(=O)NC(=O)NC1=O`, for which, in the experiment on HSkMC, the cytotoxicity call is “inactive”. Also, the growth inhibition call in the experiment on S. aureus RN4220 was “inactive”.
On to `C[C@@H]1CCC(=O)O1`, for which, in the experiment on HSkMC, the cytotoxicity call was “inactive”. Further, in the experiment on S. aureus RN4220, the growth inhibition call is “inactive”.
Take `CC(=O)[O][PbH2][O]C(C)=O`: in the experiment with HSkMC, the cytotoxicity call was “inactive”. In addition, the growth inhibition call in the experiment on S. aureus RN4220 was “inactive”.
`N#C[C@H]1NCc2cnnn2-c2ccccc21`: the cytotoxicity call in the experiment on HSkMC was “inactive”. The growth inhibition call in the experiment with S. aureus RN4220 was “inactive”.
As to `CC12CCC(=O)C=C1CCC1C2CCC2(C)C(O)CCC12` (centres undefined), in the experiment with HSkMC, the cytotoxicity call was “inactive”. Also, the growth inhibition call in the experiment with S. aureus RN4220 was “inactive”.
As to `CN1CCc2cc([C@H](CN)N(C)C)ccc21`, the cytotoxicity call with HSkMC is “inactive”. The growth inhibition call in the experiment with S. aureus RN4220 is “inactive”.
As for `C=CCN1CCC23c4c5ccc(O)c4OC2C(=O)CCC3(O)C1C5.Cl` (centres undefined), the cytotoxicity call in the experiment with HSkMC was “inactive”. The growth inhibition call in the experiment with S. aureus RN4220 was “inactive”.
For `N[C@@H](c1ccccc1)[C@@H](N)c1ccccc1`, the cytotoxicity call in the experiment on HSkMC was “inactive”. The growth inhibition call with S. aureus RN4220 was “inactive”.
Turning to `N#[N+]CC(=O)OC[C@H](N)C(=O)O`, in the experiment with HSkMC, the cytotoxicity call was “inactive”. Also, in the experiment on S. aureus RN4220, the growth inhibition call was “inactive”.
Consider `c1cnc(N[C@@H]2CO[C@@]3(CCNC3)C2)cn1`, for which the cytotoxicity call in the experiment on HSkMC was “inactive”. The growth inhibition call in the experiment with S. aureus RN4220 was “inactive”.
Turning to `N#Cc1cccnc1N1CCNCC1`, the cytotoxicity call in the experiment with HSkMC was “inactive”. In the experiment with S. aureus RN4220, the growth inhibition call is “inactive”.
For `CN1[C@@H]2CC[C@@H]1CC(N)C2` (some centres undefined), the cytotoxicity call in the experiment on HSkMC was “inactive”. In addition, in the experiment on S. aureus RN4220, the growth inhibition call was “inactive”.
Consider `CC(=O)Oc1ccc(C=Cc2cc(OC(C)=O)cc(OC(C)=O)c2)cc1`, for which, in the experiment with HSkMC, the cytotoxicity call was “inactive”. The growth inhibition call in the experiment with S. aureus RN4220 was “inactive”.
Take `CC(C)(C)[C@]1(O)C[C@@H]2OC(=O)C[C@@]23C(=O)O[C@@H]2OC(=O)[C@H](O)[C@]213`: the cytotoxicity call in the experiment on HSkMC was “inactive”. Besides, the growth inhibition call in the experiment with S. aureus RN4220 is “inactive”.
Regarding `CN(C)[C@@H](CN)c1cccc(C(F)(F)F)c1`, the cytotoxicity call in the experiment with HSkMC was “inactive”. For the same compound, the growth inhibition call in the experiment with S. aureus RN4220 is “inactive”.
Turning to `O=C(O)c1ccc(=O)[nH]c1`, the cytotoxicity call with HSkMC was “inactive”. Moreover, the growth inhibition call with S. aureus RN4220 was “inactive”.
For the compound `O=C(O)CC[N+](=O)[O-]`, the cytotoxicity call in the experiment with HSkMC was “inactive”. The growth inhibition call in the experiment with S. aureus RN4220 is “inactive”.
As for `O=[N+]([O-])O[C@@H]1CO[C@H]2[C@@H]1OC[C@@H]2O`, in the experiment with HSkMC, the cytotoxicity call is “inactive”. Moreover, in the experiment on S. aureus RN4220, the growth inhibition call was “inactive”.
Consider `N#CCCN.O=C(O)C=CC(=O)O`, for which the cytotoxicity call in the experiment with HSkMC was “inactive”. Further, the growth inhibition call in the experiment on S. aureus RN4220 is “inactive”.
As for `COCCCNC(=O)[C@]1(Cc2ccccc2N=[N+]=[N-])N=C(c2ccc(OCCCO)cc2)O[C@@H]1c1ccccc1N=[N+]=[N-]`, the cytotoxicity call in the experiment on HSkMC was “inactive”. Also, the growth inhibition call with S. aureus RN4220 was “inactive”.
With `C/C=C(\C)C(=O)O[C@H]1C[C@@H](OC(C)=O)[C@@]2(C(=O)OC)CO[C@H]3[C@@H](O)[C@@](C)([C@]45O[C@@]4(C)[C@H]4C[C@@H]5O[C@H]5OC=C[C@@]54O)[C@H]4[C@]1(CO[C@]4(O)C(=O)OC)[C@@H]32`, the cytotoxicity call with HSkMC was “inactive”. Besides, the growth inhibition call with S. aureus RN4220 is “inactive”.
With `CCOC(=O)[C@H]1[C@@H](C=C(C)C)C1(C)C`, the cytotoxicity call in the experiment on HSkMC is “inactive”. The growth inhibition call in the experiment with S. aureus RN4220 was “inactive”.
With `N[C@H]1CCN(c2cccnc2)C1`, the cytotoxicity call with HSkMC was “inactive”. In the experiment with S. aureus RN4220, the growth inhibition call was “inactive”.
For `COC(=O)[C@]1(Cc2ccccc2N=[N+]=[N-])N=C(c2ccc(OCCCO)cc2)O[C@@H]1c1ccccc1CN=[N+]=[N-]`, the cytotoxicity call with HSkMC is “inactive”. The growth inhibition call in the experiment with S. aureus RN4220 is “inactive”.
As for `CC1(C)C(O)CC(O)C2(C)C1CC(=O)C1(C)C2CCC2(C)C(c3ccoc3)OC(=O)C3OC321` (centres undefined), the cytotoxicity call in the experiment with HSkMC was “inactive”. In the experiment with S. aureus RN4220, the growth inhibition call is “inactive”.
For `O=C1C[C@@H](c2ccc(O)cc2)CN1`, in the experiment with HSkMC, the cytotoxicity call was “inactive”. For the same compound, in the experiment with S. aureus RN4220, the growth inhibition call is “inactive”.
`N[C@@]1(C(=O)O)CC[C@@H](C(=O)O)C1.N[C@]1(C(=O)O)CC[C@H](C(=O)O)C1`: the cytotoxicity call in the experiment on HSkMC was “inactive”. For the same compound, in the experiment with S. aureus RN4220, the growth inhibition call was “inactive”.
With `COc1ccc(C=O)cc1`, the cytotoxicity call with HSkMC was “inactive”. In the experiment with S. aureus RN4220, the growth inhibition call is “inactive”.
Take `CC(C)[C@H]1CN2CCC[C@H]2[C@@]2(O)O[C@](CC(=O)[C@@H]3C=C4c5cccc6[nH]cc(c56)C[C@H]4N(C)C3)(C(C)C)C(=O)N12`: the cytotoxicity call in the experiment with HSkMC is “inactive”. In addition, in the experiment with S. aureus RN4220, the growth inhibition call is “inactive”.
On to `OCC(O)C1OC2OC(C(Cl)(Cl)Cl)OC2C1O` (centres undefined), for which, in the experiment with HSkMC, the cytotoxicity call was “inactive”. For the same compound, in the experiment on S. aureus RN4220, the growth inhibition call is “inactive”.
As for `Cn1c(CCN)nc2ccccc21`, the cytotoxicity call in the experiment with HSkMC was “inactive”. Moreover, in the experiment on S. aureus RN4220, the growth inhibition call is “inactive”.
As for `CCNC(=O)[C@H]1O[C@H](n2cnc3c(N)ncnc32)[C@@H](O)[C@@H]1O`, the cytotoxicity call in the experiment on HSkMC was “inactive”. In addition, in the experiment with S. aureus RN4220, the growth inhibition call was “inactive”.
For the compound `CO[C@H]1[C@H](O)[C@@H](O[C@H]2[C@@H](C)O[C@@H](O[C@H]3[C@H](C)O[C@H](O[C@H]4CC[C@@]5(C)[C@@H](CC[C@@]6(O)[C@@H]5C[C@@H](O)[C@]5(C)[C@]6(O)CC[C@@]5(O)[C@@H](C)O)C4)C[C@@H]3OC)C[C@H]2OC)O[C@@H](C)[C@H]1O`, the cytotoxicity call with HSkMC was “inactive”. For the same compound, in the experiment with S. aureus RN4220, the growth inhibition call was “inactive”.
Take `Nc1nnns1`: the cytotoxicity call in the experiment on HSkMC was “inactive”. Further, the growth inhibition call with S. aureus RN4220 is “inactive”.
Take `CCNC1(c2cccs2)CCCCC1=O.Cl` (centres undefined): in the experiment on HSkMC, the cytotoxicity call is “inactive”. Further, the growth inhibition call with S. aureus RN4220 was “inactive”.
In the case of `NCCc1[nH]nc2c1CCCC2`, in the experiment with HSkMC, the cytotoxicity call is “inactive”. In addition, in the experiment with S. aureus RN4220, the growth inhibition call is “inactive”.
Turning to `CC1(C)CCC(C)(C)c2cc(-c3csc(CC#N)n3)ccc21`, the cytotoxicity call in the experiment on HSkMC is “inactive”. Besides, the growth inhibition call with S. aureus RN4220 is “inactive”.
`[N-]=[N+]=NCc1ccccc1C[C@@]1(C(=O)N2CCCCC2)N=C(c2ccc(OCCCO)cc2)O[C@@H]1c1ccccc1N=[N+]=[N-]`: the cytotoxicity call in the experiment with HSkMC is “inactive”. Further, the growth inhibition call with S. aureus RN4220 is “inactive”.
Consider `COC(N)=O`, for which the cytotoxicity call in the experiment on HSkMC is “inactive”. Also, the growth inhibition call with S. aureus RN4220 was “inactive”.
As for `[N-]=[N+]=Nc1ccc2[nH]ccc2c1`, in the experiment on HSkMC (human skeletal muscle cells), the cytotoxicity call was “inactive”. Also, the growth inhibition call with S. aureus RN4220 was “inactive”.
